Measured values published in ChEMBL document CHEMBL4888484, “Replenishing the malaria drug discovery pipeline: Screening and hit evaluation of the MMV Hit Generation Library 1 (HGL1) against asexual blood stage Plasmodium falciparum ,using a nano luciferase reporter read-out” (2022).
Hit rate of the full screen: of about 150,000 compounds, about 540 (0.36%) showed an effect of 50% or more. This is one part of the list.

tested on: Plasmodium falciparum; test: Primary screen in NF54 nanoGlo assay, in single point, at 2uM, 72h; a lower Z score goes with more inhibition; type: functional, Erythrocyte; details: timepoint 72 hour

| SMILES | % Inhibition | Z score |
| --- | --- | --- |
| COC(C)c1noc(CCC(=O)OC2CC3CC(C2C)C3(C)C)n1 (centres undefined) | -4% | 0.42 |
| C[C@@H](c1ccccc1)n1nnnc1N1CCC2(CCCO2)CC1 | -10% | 1.32 |
| CCOc1ccc(NC(=O)c2n[nH]c3ccccc23)cn1 | -14% | 1.45 |
| O=C(c1ccccc1COC1CCOCC1)N1CCC[C@H](c2nnc[nH]2)C1 | 28% | -0.36 |
| COc1cccc(CNC(=O)CCC(=O)Nc2nnc3ccccn23)c1 | -10% | 1.14 |
| CCCN(CC(=O)c1c(C(C)C)nn(-c2ccc(C)cc2)c1O)C(=O)c1cccc(C(F)(F)F)c1 | -1% | 0.13 |
| CCCCc1nc(N2CCN(C(=O)c3ccccc3)CC2)c2c(-c3ccccc3)noc2n1 | 1% | -0.14 |
| CC(ON=C(N)CN1C(C)CCCC1C)c1ncc(-c2ccccc2)o1 (centres undefined) | -1% | 0.15 |
| CN1CC[C@@H]2CN(C(=O)c3ccc(-c4cn(-c5ccccc5)cn4)cc3)C[C@@H]21 | 8% | -1.29 |
| CC[C@@H](CO)N(Cc1cccs1)C(=O)c1cnc2ccccn12 | 1% | -0.2 |
| Cc1cc(N2CCN(C(=O)NCc3ccc4[nH]c(C)cc4c3)CC2)nc(N)n1 | 0% | 0.03 |
| O=C(CCc1nc2ccccc2s1)N1CCCN(C(=O)C2CCCC2)CC1 | -9% | 1.31 |
| CCc1noc(COC2CN(Cc3ccc(F)cc3Cl)C2)n1 | -2% | 0.42 |
| Cc1n[nH]c(C)c1CNc1cc(=O)n(C)c(=O)[nH]1 | -7% | 1 |
| O=C(NCCC1=CCCCC1)c1ccc(CN2C(=O)CCn3nc(-c4ccccc4)cc32)cc1 | -6% | 0.96 |
| COc1ccc(CCNC(=O)c2nnc(Cc3c(F)cccc3Cl)o2)cc1OC | 34% | -2.31 |
| CC(C)c1nccc([C@H]2CC(=O)Nc3cc(N4CCNC4=O)ccc32)n1 | -11% | 1.75 |
| CCn1c(=O)cc(C)c2ccc(OCC(=O)Nc3ccccc3)cc21 | -3% | 0.52 |
| CC(C)N(CC(C)(C)O)C(=O)Nc1ccc(C(N)=O)c(Cl)c1 | 40% | -5.83 |
| Cc1cccc2c1c(-c1ccc(C(=O)N3CCC[C@H](C#N)C3)cc1)nn2C | -12% | 1.91 |
| Cc1ccc(S(=O)(=O)CC(=O)Nc2nnc(-c3ccccc3)o2)cc1 | -16% | 3.1 |
| O=C(Cc1cnn(-c2ccccc2)c1)N1CCN(c2ccccn2)CC1 | -3% | 0.58 |
